{"source": "paper PMC4336329", "about": "(PLoS ONE, 2015)", "note": "About 2,200 (0.71%) of roughly 310,000 compounds showed an effect of 50% or more. Effects have a minus sign here. Some of the results follow.", "data": [{"target": "human ether-à-go-go-related gene (hERG) potassium channel (human, UniProt Q12809)", "sequence (Q12809 whole entry, looked up)": "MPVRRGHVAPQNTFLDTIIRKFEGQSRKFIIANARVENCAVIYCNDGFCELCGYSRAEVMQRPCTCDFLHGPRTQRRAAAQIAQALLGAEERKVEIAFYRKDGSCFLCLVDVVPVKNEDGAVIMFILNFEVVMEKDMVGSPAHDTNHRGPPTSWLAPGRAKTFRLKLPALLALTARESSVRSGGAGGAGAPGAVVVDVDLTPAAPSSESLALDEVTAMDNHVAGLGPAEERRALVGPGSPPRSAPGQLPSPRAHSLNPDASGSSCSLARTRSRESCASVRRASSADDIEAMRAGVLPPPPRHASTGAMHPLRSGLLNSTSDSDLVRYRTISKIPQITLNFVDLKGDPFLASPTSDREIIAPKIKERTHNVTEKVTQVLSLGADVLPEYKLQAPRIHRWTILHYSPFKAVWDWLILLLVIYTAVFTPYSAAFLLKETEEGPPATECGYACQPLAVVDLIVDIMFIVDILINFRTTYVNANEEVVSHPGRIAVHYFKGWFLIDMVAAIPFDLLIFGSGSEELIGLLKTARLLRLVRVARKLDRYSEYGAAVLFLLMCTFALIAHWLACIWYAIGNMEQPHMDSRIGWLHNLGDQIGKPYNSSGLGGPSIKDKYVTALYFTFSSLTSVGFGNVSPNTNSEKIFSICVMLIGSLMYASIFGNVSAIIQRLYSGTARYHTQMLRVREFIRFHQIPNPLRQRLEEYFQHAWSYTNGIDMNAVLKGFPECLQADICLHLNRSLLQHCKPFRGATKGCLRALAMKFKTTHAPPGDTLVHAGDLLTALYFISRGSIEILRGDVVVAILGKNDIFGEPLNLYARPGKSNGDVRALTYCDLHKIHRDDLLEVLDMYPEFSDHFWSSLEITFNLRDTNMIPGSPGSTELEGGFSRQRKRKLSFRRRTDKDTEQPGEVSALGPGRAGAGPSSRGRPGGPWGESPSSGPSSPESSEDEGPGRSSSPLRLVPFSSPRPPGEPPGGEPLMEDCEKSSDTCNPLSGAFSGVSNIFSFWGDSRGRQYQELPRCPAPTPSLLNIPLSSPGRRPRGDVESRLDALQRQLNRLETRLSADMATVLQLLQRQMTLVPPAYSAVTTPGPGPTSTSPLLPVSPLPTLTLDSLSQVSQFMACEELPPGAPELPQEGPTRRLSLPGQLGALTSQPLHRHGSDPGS", "experiment": "primary screen, population patch clamp on CHO cells stably expressing hERG", "units": {"hERG current change (%, negative = inhibition) at 1uM": "%"}, "values": [{"molecule": "Cn1c(C(=O)O)cnc1Sc1ncc(C(F)(F)F)cc1Cl", "hERG current change (%, negative = inhibition) at 1uM": 15.1}, {"molecule": "C[C@@H]1O[C@@H](O[C@@H]2C(=O)c3c(O)cc(O)cc3O[C@H]2c2ccc(O)c(O)c2)[C@H](O)[C@H](O)[C@H]1O", "hERG current change (%, negative = inhibition) at 1uM": 10.6}, {"molecule": "Cc1ccccc1OCCC(=O)OCC(=O)N1c2ccccc2NC(=O)C1(C)C", "hERG current change (%, negative = inhibition) at 1uM": 2.09}, {"molecule": "CC(C)C(C(=O)O)N1C(=O)/C(=C/c2cccn2C)SC1=S", "note": "(stereo not shown)", "hERG current change (%, negative = inhibition) at 1uM": 6.06}, {"molecule": "O=C(Nc1cc(NC(=O)c2ccccc2F)ccc1Cl)c1ccccc1", "hERG current change (%, negative = inhibition) at 1uM": 14.3}, {"molecule": "COc1ccc(C(=O)C23CC4CC(C2)CC(C(=O)c2ccc(OC)cc2)(C4)C3)cc1", "hERG current change (%, negative = inhibition) at 1uM": 11.1}, {"molecule": "CC(=O)Nc1ccc(-c2csc(NC(=O)C3CCN(S(=O)(=O)c4cccs4)CC3)n2)cc1", "hERG current change (%, negative = inhibition) at 1uM": 7.56}, {"molecule": "CCn1c(SCC(=O)Nc2ccc3c(c2)OCCO3)nc2c(c1=O)SC(C)C2", "note": "(stereo not shown)", "hERG current change (%, negative = inhibition) at 1uM": 14.9}, {"molecule": "CC(=O)Nn1c(-c2ccccc2)cc2ccccc21", "hERG current change (%, negative = inhibition) at 1uM": 9.84}, {"molecule": "Cn1c(=O)oc2cc(S(=O)(=O)N3CCC4(CC3)OCCO4)ccc21", "hERG current change (%, negative = inhibition) at 1uM": 5.06}, {"molecule": "CCc1nc2nc(C)c(NS(=O)(=O)c3ccc(F)cc3)c(=O)n2[nH]1", "hERG current change (%, negative = inhibition) at 1uM": 12.5}, {"molecule": "Cc1cccc(CN2CCCC(C(=O)N3CCc4ccccc4C3)C2)c1.O=C(O)C(=O)O", "note": "(stereo not shown)", "hERG current change (%, negative = inhibition) at 1uM": -18.6}, {"molecule": "CSC(=S)NCc1cccnc1", "hERG current change (%, negative = inhibition) at 1uM": 13.4}, {"molecule": "CC(=O)Nc1ccc2nc(-c3ccncc3)[nH]c2c1", "hERG current change (%, negative = inhibition) at 1uM": 14.3}, {"molecule": "O=C(NCc1ccccn1)c1ccc(/C=N/O)nc1", "hERG current change (%, negative = inhibition) at 1uM": 10.1}, {"molecule": "COc1cccc(NC(=O)C2CCC(CNS(=O)(=O)c3cccc4cccnc34)CC2)c1", "note": "(stereo not shown)", "hERG current change (%, negative = inhibition) at 1uM": 14.4}, {"molecule": "CCOc1cccc(=O)c2c(C)n(Cc3ccco3)c(C)c12", "hERG current change (%, negative = inhibition) at 1uM": -6.11}, {"molecule": "COC(=O)c1cc(S(=O)(=O)Nc2cccc(-c3cnco3)c2)oc1C", "hERG current change (%, negative = inhibition) at 1uM": 7.27}, {"molecule": "CN1CCN(c2ccccc2NC(=O)COc2ccc(C3CCCCC3)cc2)CC1", "hERG current change (%, negative = inhibition) at 1uM": 14.2}, {"molecule": "COC(=O)C1=C(c2ccc(OC)c(OC)c2)C[C@@H]2CC[C@H]1N2C(=O)N1CCc2cc(OC)c(OC)cc2C1", "hERG current change (%, negative = inhibition) at 1uM": 9.58}, {"molecule": "Cc1sc2ncnc(N3CCC(C(=O)NNC(=O)COc4ccc(Br)cc4)CC3)c2c1C", "hERG current change (%, negative = inhibition) at 1uM": -28.4}, {"molecule": "CC(=O)Nc1ccc(S(=O)(=O)NNC(=O)c2cc3c4ccccc4n(C)c3s2)cc1", "hERG current change (%, negative = inhibition) at 1uM": 8.59}, {"molecule": "Cc1ccc(-n2c([S-])c(C(=O)Nc3ccc(OC(F)F)cc3)[n+]3ccc(C(=O)NCCO)cc23)cc1C", "hERG current change (%, negative = inhibition) at 1uM": 14.3}, {"molecule": "CCN(CC)CCn1c(SCC(=O)NCCC2=CCCCC2)nc2c(sc3ccccc32)c1=O", "hERG current change (%, negative = inhibition) at 1uM": 15.4}, {"molecule": "CCOc1ccc(CN2CCN(Cc3cccc4nonc34)CC2CCO)cc1", "note": "(stereo not shown)", "hERG current change (%, negative = inhibition) at 1uM": -84.6}, {"molecule": "O=C(Cc1cccc(F)c1F)NC1CCCN(Cc2ccc(Cl)cc2)C1", "note": "(stereo not shown)", "hERG current change (%, negative = inhibition) at 1uM": 5.47}, {"molecule": "COc1ccc(NS(=O)(=O)c2ccc3c(c2)N(C(C)=O)CCO3)c(OC)c1", "hERG current change (%, negative = inhibition) at 1uM": 7.56}, {"molecule": "O=C(NCc1ccncc1)c1cc(S(=O)(=O)N2CCOCC2)c(Cl)cc1Cl", "hERG current change (%, negative = inhibition) at 1uM": 12.6}, {"molecule": "N#CCCC(CCC#N)C1=NCCc2ccccc21", "hERG current change (%, negative = inhibition) at 1uM": 8.18}, {"molecule": "Cc1ccc2nc(CCc3nc4ccc(C)cc4[nH]3)[nH]c2c1.Cl", "hERG current change (%, negative = inhibition) at 1uM": -3.04}, {"molecule": "C=C(C)COc1ccc(-c2ncnc(C(F)(F)F)c2-c2ccccc2)c(O)c1", "hERG current change (%, negative = inhibition) at 1uM": 14.6}, {"molecule": "COC(=O)c1ccc(CN2CCC(Oc3cccc(C(=O)N4CCOCC4)c3)CC2)cc1", "hERG current change (%, negative = inhibition) at 1uM": 3.05}, {"molecule": "COC(=O)c1cc2occc2n1CC(=O)Nc1cc(OC)cc(OC)c1", "hERG current change (%, negative = inhibition) at 1uM": 7.17}, {"molecule": "CCCCNc1nnc(Cc2ccc(Cl)cc2)c(=O)[nH]1", "hERG current change (%, negative = inhibition) at 1uM": 8.73}, {"molecule": "CC1(c2ccccn2)Nc2ccccc2-c2nc3ccccc3n21", "note": "(stereo not shown)", "hERG current change (%, negative = inhibition) at 1uM": 10.7}, {"molecule": "CCc1ccc(CN2CCC(C(=O)Nc3ccc(Oc4ccccc4)nc3)CC2)o1", "hERG current change (%, negative = inhibition) at 1uM": -11.7}, {"molecule": "O=C(NCC(c1ccco1)N1CCc2ccccc21)c1ccccc1", "note": "(stereo not shown)", "hERG current change (%, negative = inhibition) at 1uM": 7.13}, {"molecule": "N#Cc1nc(-c2ccco2)oc1N1CCCC1", "hERG current change (%, negative = inhibition) at 1uM": 2.15}, {"molecule": "C=CCc1cc(OC)ccc1OCCON1C(=O)CCC1=O", "hERG current change (%, negative = inhibition) at 1uM": 6.24}, {"molecule": "COc1ccc(C(c2nnnn2CCc2ccccc2)N2CCN(C3CCCC3)CC2)cc1.Cl", "note": "(stereo not shown)", "hERG current change (%, negative = inhibition) at 1uM": -48.4}, {"molecule": "c1ccc2[nH]c(-c3ccc4c(c3)OCO4)nc2c1", "hERG current change (%, negative = inhibition) at 1uM": 6.03}, {"molecule": "CCOC(=O)c1c(-c2ccccc2)csc1NC(=O)C(C)NCc1ccco1.O=C(O)C(=O)O", "note": "(stereo not shown)", "hERG current change (%, negative = inhibition) at 1uM": -8.34}, {"molecule": "COc1cccc(NC(=O)Cc2c(O)c3ccccc3[nH]c2=O)c1", "hERG current change (%, negative = inhibition) at 1uM": 17.8}, {"molecule": "O=C(NCc1ccccc1)C1CCN(S(=O)(=O)c2ccc(Cl)cc2)CC1", "hERG current change (%, negative = inhibition) at 1uM": 10}, {"molecule": "Cc1ccc(CNC(=O)CCn2cc(-c3ccc(C)cc3)nc2-c2ccncc2)cc1", "hERG current change (%, negative = inhibition) at 1uM": -10.5}, {"molecule": "O=C(COc1ccc(S(=O)(=O)N2CCCC2)cc1)N1CCCC1", "hERG current change (%, negative = inhibition) at 1uM": 11.9}, {"molecule": "CCOC(=O)c1c(C=O)c2sc(C)cc2n1C", "hERG current change (%, negative = inhibition) at 1uM": 6.56}, {"molecule": "Cn1cnnc1SCC(=O)Nc1ccc(F)cc1F", "hERG current change (%, negative = inhibition) at 1uM": 28.5}, {"molecule": "Cc1ccccc1NC(=O)Cc1nnc(NC(=O)Nc2ccccc2F)s1", "hERG current change (%, negative = inhibition) at 1uM": 15.2}, {"molecule": "Cc1cccc(-n2cc(CN3CCCN(C=O)CC3)c(-c3cccc(F)c3)n2)c1", "hERG current change (%, negative = inhibition) at 1uM": 13.6}, {"molecule": "CCc1ccc(-c2cc(C)no2)cc1S(=O)(=O)N1CCCN(Cc2ccc(F)cc2)C1", "hERG current change (%, negative = inhibition) at 1uM": 12.1}, {"molecule": "O=C(CN1c2cccc3cccc(c23)S1(=O)=O)N1CCOCC1", "hERG current change (%, negative = inhibition) at 1uM": 12.3}, {"molecule": "NC1=NC(=O)/C(=C/c2ccccc2OS(=O)(=O)c2ccccc2)S1", "hERG current change (%, negative = inhibition) at 1uM": 5.18}, {"molecule": "NC(=O)C1CC(=O)N(c2ccc(OCC(=O)Nc3ccc(Cl)cc3)cc2)C1", "note": "(stereo not shown)", "hERG current change (%, negative = inhibition) at 1uM": 17.7}, {"molecule": "CCc1ccccc1NC(=O)CN(C1CCCCC1)S(C)(=O)=O", "hERG current change (%, negative = inhibition) at 1uM": 11.4}]}]}
